Over roughly 18,000 sequences, “TetR repression strength (sort-seq, GFP reporter)” has its median near 0.23; the highest 2% begin near 0.68. This is one part of the list.

This test concerns the target TetR (class B, Tn10) (UniProt P04483). Description: TetR repression strength (sort-seq, GFP reporter) (relative to tetO2 = 1); higher = stronger repression. The settings on record: E. coli. The procedure, abridged: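 Repression strength is the top bin index plus one minus the read-weighted mean bin, relative to the unaltered operator's value. A low-copy library in E. coli SIG10-MAX randomized eight operator positions between a constitutive promoter and sfGFP, with TetR expressed constitutively; cells grew 5 h at 37 °C in LB with 50 µg/mL chloramphenicol and 10^6 were FACS-sorted into 13 bins that were each Illumina-sequenced. Three independent transformations were averaged, keeping only members with ≥30 reads in all replicates and CV ≤0.5.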
Sequence of UniProt P04483 (P04483 whole entry): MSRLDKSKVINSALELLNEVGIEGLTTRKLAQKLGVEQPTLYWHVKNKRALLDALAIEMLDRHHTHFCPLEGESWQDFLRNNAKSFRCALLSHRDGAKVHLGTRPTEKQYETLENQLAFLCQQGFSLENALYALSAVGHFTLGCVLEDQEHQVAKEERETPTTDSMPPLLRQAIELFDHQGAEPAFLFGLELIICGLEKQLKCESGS
Take TCCCGATCAGTATGAGAGA: the TetR repression strength was 0.185.

In turn, TCCCTCTAAGTCCAGGAGA came in with a TetR repression strength of 0.267.

The sequence TCCCTTACAGTTGGGGAGA returned a TetR repression strength of 0.299.

The sequence TCCCGATAAGTGGTGGAGA came in with a TetR repression strength of 0.315.

In turn, TCCCCTCGAGTTGTTGAGA yielded a TetR repression strength of 0.315.

For TCCCGTTTAGTCGAAGAGA, the TetR repression strength worked out at 0.15.

Consider TCCCGAATAGTAAGTGAGA, for which the TetR repression strength was determined as 0.104.

TCCCGGAGAGTTTGAGAGA: the TetR repression strength came out at 0.126.

In the case of TCCCCCAGAGTTGCCGAGA, the TetR repression strength came out at 0.415.

TCCCTTGCAGTACATGAGA registered a TetR repression strength of 0.298.

TCCCCTCGAGTTTGCGAGA registered a TetR repression strength of 0.307.

As for TCCCTTCAAGTGCCCGAGA, the TetR repression strength worked out at 0.415.

TCCCCTAGAGTGGACGAGA returned a TetR repression strength of 0.127.

TCCCTAATAGTGACTGAGA came in with a TetR repression strength of 0.314.

The sequence TCCCAGATAGTCCGTGAGA registered a TetR repression strength of 0.156.

As to TCCCTAGCAGTTCTAGAGA, the TetR repression strength is 0.515.

As for TCCCGCCGAGTACCTGAGA, the TetR repression strength is 0.183.

In turn, TCCCACCGAGTGAGAGAGA yielded a TetR repression strength of 0.43.

TCCCAAATAGTTGGTGAGA registered a TetR repression strength of 0.314.

In turn, TCCCTGTAAGTCGATGAGA returned a TetR repression strength of 0.133.

TCCCGGTCAGTAGAAGAGA came in with a TetR repression strength of 0.226.

On to TCCCAAGAAGTGGGTGAGA, for which the TetR repression strength amounted to 0.151.

The sequence TCCCTATCAGTCCTCGAGA showed a TetR repression strength of 0.747.

On to TCCCGCGTAGTCGACGAGA, for which the TetR repression strength was 0.302.

As for TCCCGGCGAGTTTAGGAGA, the TetR repression strength is 0.328.

In turn, TCCCTATCAGTCACCGAGA yielded a TetR repression strength of 0.789.

TCCCGTCGAGTCAGGGAGA came in with a TetR repression strength of 0.367.

Sequence TCCCATCCAGTTGTGGAGA yielded a TetR repression strength of 0.318.

Consider TCCCCCGAAGTAGCAGAGA, for which the TetR repression strength came to 0.346.

In turn, TCCCATCAAGTGCAAGAGA yielded a TetR repression strength of 0.315.

In turn, TCCCTGTAAGTGTATGAGA gave a TetR repression strength of 0.31.

As to TCCCGATGAGTGGAGGAGA, the TetR repression strength is 0.383.

TCCCATCGAGTGTGTGAGA showed a TetR repression strength of 0.185.

Regarding TCCCTGACAGTGTGTGAGA, the TetR repression strength is 0.311.

Regarding TCCCGTGTAGTCTTAGAGA, the TetR repression strength is 0.304.

TCCCGGGTAGTAAATGAGA had a TetR repression strength of 0.265.

In the case of TCCCGGGGAGTCTTGGAGA, the TetR repression strength is 0.243.

Regarding TCCCTAAGAGTCCCAGAGA, the TetR repression strength was found to be 0.214.

TCCCCAGGAGTGAACGAGA gave a TetR repression strength of 0.401.

Sequence TCCCGTAGAGTGTGCGAGA came in with a TetR repression strength of 0.256.

In turn, TCCCCGGGAGTGGAGGAGA yielded a TetR repression strength of 0.175.

In turn, TCCCAGGGAGTCGTCGAGA displayed a TetR repression strength of 0.188.

In the case of TCCCGTCAAGTGGGTGAGA, the TetR repression strength worked out at 0.222.

TCCCATGAAGTGCGTGAGA gave a TetR repression strength of 0.176.

TCCCTTTAAGTGATGGAGA had a TetR repression strength of 0.363.

The sequence TCCCACAAAGTGGTCGAGA registered a TetR repression strength of 0.294.

TCCCTTAGAGTAGGTGAGA: the TetR repression strength is 0.144.

In turn, TCCCCGTGAGTCCAGGAGA yielded a TetR repression strength of 0.185.

TCCCAATCAGTAACTGAGA: the TetR repression strength is 0.278.

Sequence TCCCGTTAAGTTCTGGAGA yielded a TetR repression strength of 0.256.

In turn, TCCCGCATAGTCGAAGAGA had a TetR repression strength of 0.328.

Turning to TCCCGGGTAGTGGGCGAGA, the TetR repression strength came to 0.24.

In turn, TCCCCCGTAGTGTGCGAGA gave a TetR repression strength of 0.19.

TCCCGAGCAGTGCCGGAGA came in with a TetR repression strength of 0.317.

As to TCCCTGATAGTTAGGGAGA, the TetR repression strength worked out at 0.233.

Regarding TCCCGTCTAGTATGTGAGA, the TetR repression strength was 0.45.

TCCCTTCGAGTTAGTGAGA registered a TetR repression strength of 0.19.

Sequence TCCCGAGGAGTGCGAGAGA displayed a TetR repression strength of 0.438.

In turn, TCCCGGGTAGTTGGGGAGA registered a TetR repression strength of 0.139.

TCCCACCCAGTTTAGGAGA registered a TetR repression strength of 0.122.

The sequence TCCCGTTGAGTGGACGAGA gave a TetR repression strength of 0.128.

The sequence TCCCGGAAAGTAGTGGAGA displayed a TetR repression strength of 0.122.

Take TCCCCAACAGTTGTTGAGA: the TetR repression strength was determined as 0.452.

As for TCCCGGGAAGTGTCAGAGA, the TetR repression strength was 0.181.

TCCCATCAAGTGTGGGAGA displayed a TetR repression strength of 0.0444.

In turn, TCCCAAGGAGTATTGGAGA showed a TetR repression strength of 0.284.

On to TCCCAGGAAGTGAATGAGA, for which the TetR repression strength turned out to be 0.104.

On to TCCCCTCGAGTGTGAGAGA, for which the TetR repression strength worked out at 0.124.

In turn, TCCCGTAAAGTTTCTGAGA yielded a TetR repression strength of 0.187.

TCCCATTAAGTCTTAGAGA showed a TetR repression strength of 0.294.

As to TCCCCAAGAGTAAACGAGA, the TetR repression strength is 0.291.

In turn, TCCCTATAAGTCATTGAGA displayed a TetR repression strength of 0.498.

TCCCAACTAGTGTAGGAGA came in with a TetR repression strength of 0.146.

TCCCGCTTAGTCGTTGAGA: the TetR repression strength came to 0.0178.

As to TCCCATCGAGTAGGGGAGA, the TetR repression strength was 0.118.

Sequence TCCCCGAGAGTGCATGAGA displayed a TetR repression strength of 0.128.

In turn, TCCCTACTAGTAATGGAGA came in with a TetR repression strength of 0.415.

TCCCATTCAGTCCTGGAGA registered a TetR repression strength of 0.207.

The sequence TCCCCTTAAGTTTATGAGA showed a TetR repression strength of 0.311.

TCCCTGTGAGTGTTAGAGA displayed a TetR repression strength of 0.199.

The sequence TCCCGCACAGTGCGTGAGA registered a TetR repression strength of 0.117.

Consider TCCCTGGCAGTATGTGAGA, for which the TetR repression strength worked out at 0.194.

The sequence TCCCAGCGAGTGACTGAGA came in with a TetR repression strength of 0.0946.

As for TCCCATGAAGTAGTTGAGA, the TetR repression strength worked out at 0.0364.

Take TCCCGAGGAGTAGACGAGA: the TetR repression strength stood at 0.227.

The sequence TCCCGTACAGTTAAGGAGA came in with a TetR repression strength of 0.316.

For TCCCTTGGAGTAGTAGAGA, the TetR repression strength worked out at 0.559.

Turning to TCCCGGGTAGTCCTCGAGA, the TetR repression strength stood at 0.159.

The sequence TCCCAATAAGTATCAGAGA displayed a TetR repression strength of 0.0222.

TCCCCTGCAGTGAAGGAGA: the TetR repression strength came out at 0.2.

Turning to TCCCTTGTAGTTCGTGAGA, the TetR repression strength was 0.575.

TCCCTTATAGTACTTGAGA yielded a TetR repression strength of 0.13.

The sequence TCCCAAGGAGTGATGGAGA yielded a TetR repression strength of 0.125.

In turn, TCCCAAGTAGTGGAGGAGA showed a TetR repression strength of 0.0694.

Sequence TCCCATGAAGTTGGGGAGA had a TetR repression strength of 0.261.

As for TCCCACTGAGTGGTTGAGA, the TetR repression strength stood at 0.0824.

Take TCCCAAGGAGTGGTAGAGA: the TetR repression strength is 1.18.

TCCCGGTGAGTGAGGGAGA came in with a TetR repression strength of 0.205.

TCCCCCATAGTCTGTGAGA gave a TetR repression strength of 0.325.

The sequence TCCCGGTAAGTGTTCGAGA showed a TetR repression strength of 0.139.

The sequence TCCCACGTAGTGGCCGAGA came in with a TetR repression strength of 0.407.

As to TCCCTCATAGTGGCGGAGA, the TetR repression strength came out at 0.231.

Source of the values: a collection of fitness landscapes (doi:10.1038/s41467-024-54723-y).
